Results published in a compilation of properties of binary mixtures (doi:10.1021/je3004904).
Some of these densities may be calculated back from excess volumes.

Assay: xn = mol fraction of the nth substance listed
Conditions: 101 kPa

[Cl][Al]([Cl])[Cl] + CCCC[n+]1ccn(C)c1.[Cl-]
Conditions	mass density [kg/m3]
293.15 K, x1 = 0.5	1242.2
293.15 K, x1 = 0.5238	1254.1
293.15 K, x1 = 0.545	1265.9
293.15 K, x1 = 0.5454	1265.5
293.15 K, x1 = 0.5653	1276.8
293.15 K, x1 = 0.583	1287.8
293.15 K, x1 = 0.5834	1287.6
293.15 K, x1 = 0.6001	1297.8
293.15 K, x1 = 0.615	1307.9
293.15 K, x1 = 0.6154	1307.4
293.15 K, x1 = 0.6296	1316.5
293.15 K, x1 = 0.6429	1325.1
293.15 K, x1 = 0.6551	1333.2
293.15 K, x1 = 0.6667	1340.9
298.15 K, x1 = 0.583	1283.6
298.15 K, x1 = 0.615	1303.6
298.15 K, x1 = 0.643	1322.5
298.15 K, x1 = 0.667	1336.3
303.15 K, x1 = 0.5	1234.4
303.15 K, x1 = 0.545	1257.7
303.15 K, x1 = 0.5454	1257.4
303.15 K, x1 = 0.583	1279.4
303.15 K, x1 = 0.5834	1279.1
303.15 K, x1 = 0.6001	1289.3
303.15 K, x1 = 0.615	1299.3
303.15 K, x1 = 0.6154	1298.7
303.15 K, x1 = 0.6296	1307.7
303.15 K, x1 = 0.6551	1324.2
303.15 K, x1 = 0.6667	1331.8
308.15 K, x1 = 0.545	1253.7
308.15 K, x1 = 0.583	1275.2
308.15 K, x1 = 0.643	1313.6
308.15 K, x1 = 0.667	1327.3
313.15 K, x1 = 0.5	1226.6
313.15 K, x1 = 0.5238	1238.1
313.15 K, x1 = 0.545	1249.6
313.15 K, x1 = 0.5653	1260.3
313.15 K, x1 = 0.583	1271.1
313.15 K, x1 = 0.5834	1270.8
313.15 K, x1 = 0.6001	1280.8
313.15 K, x1 = 0.615	1290.8
313.15 K, x1 = 0.6296	1299.1
313.15 K, x1 = 0.6429	1307.5
313.15 K, x1 = 0.643	1309.3
313.15 K, x1 = 0.6551	1315.3
313.15 K, x1 = 0.6667	1322.9
313.15 K, x1 = 0.667	1322.9
318.15 K, x1 = 0.545	1245.6
318.15 K, x1 = 0.583	1267
318.15 K, x1 = 0.615	1286.5
318.15 K, x1 = 0.643	1304.9
323.15 K, x1 = 0.5238	1230.2
323.15 K, x1 = 0.545	1241.6
323.15 K, x1 = 0.5653	1252.2
323.15 K, x1 = 0.583	1262.9
323.15 K, x1 = 0.5834	1262.5
323.15 K, x1 = 0.6001	1272.4
323.15 K, x1 = 0.615	1282.3
323.15 K, x1 = 0.6154	1281.7
323.15 K, x1 = 0.6429	1298.8
323.15 K, x1 = 0.643	1300.5
323.15 K, x1 = 0.6551	1306.5
323.15 K, x1 = 0.6667	1314
323.15 K, x1 = 0.667	1314
328.15 K, x1 = 0.545	1237.6
328.15 K, x1 = 0.583	1258.8
328.15 K, x1 = 0.615	1278
328.15 K, x1 = 0.667	1309.6
333.15 K, x1 = 0.5	1211.3
333.15 K, x1 = 0.545	1233.7
333.15 K, x1 = 0.5454	1233.3
333.15 K, x1 = 0.5653	1244.1
333.15 K, x1 = 0.583	1254.7
333.15 K, x1 = 0.5834	1254.3
333.15 K, x1 = 0.6154	1273.3
333.15 K, x1 = 0.6429	1290.2
333.15 K, x1 = 0.643	1291.9
333.15 K, x1 = 0.6551	1297.8
333.15 K, x1 = 0.6667	1305.2
333.15 K, x1 = 0.667	1305.2
338.15 K, x1 = 0.545	1229.7
338.15 K, x1 = 0.583	1250.6
338.15 K, x1 = 0.615	1269.5
338.15 K, x1 = 0.643	1287.6
338.15 K, x1 = 0.667	1300.8
343.15 K, x1 = 0.5	1203.7
343.15 K, x1 = 0.5238	1214.6
343.15 K, x1 = 0.545	1225.8
343.15 K, x1 = 0.5653	1236
343.15 K, x1 = 0.583	1246.5
343.15 K, x1 = 0.6001	1255.8
343.15 K, x1 = 0.615	1265.2
343.15 K, x1 = 0.6154	1264.9
343.15 K, x1 = 0.6296	1273.4
343.15 K, x1 = 0.643	1283.2
343.15 K, x1 = 0.6551	1289.2
343.15 K, x1 = 0.6667	1296.5
343.15 K, x1 = 0.667	1296.5

Cn1cc[nH+]c1.[Cl-] + Cl[Al](Cl)Cl
mass density [kg/m3]
Conditions	x2 = 0.643	x2 = 0.667
293.15 K	1487.1	1495.2
298.15 K	1482.3	1490.3
303.15 K	1477.5	–
308.15 K	1472.8	1480.9
313.15 K	–	1476.2
318.15 K	1463.3	1471.5
323.15 K	1458.6	1466.8
328.15 K	1453.9	1462.1
333.15 K	1449.3	1457.4
338.15 K	1444.6	1452.7
343.15 K	1440	1448.1
